According to PubChem BioAssay AID485360 (National Center for Advancing Translational Sciences (NCATS), 2010):
Hit rate of the full screen: of about 230,000 compounds, about 1,500 (0.65%) were called active. The shares of active, inactive and inconclusive entries below differ from those in the screen. The call rests on the fitted dose curve; in most records, active means well fitted inhibition curve with a large enough effect; inconclusive means small, poorly fitted or top-dose-only effect; inactive means no such curve, though single readings can be large or run the other way. Where the call is inconclusive, the potency comes from a doubtful curve fit.

biological target: Lethal(3)malignant brain tumor-like protein 1 (Homo sapiens) (UniProt Q9Y468); assay: qHTS Assay for the Inhibitors of L3MBTL1; settings: AlphaScreen L3MBTL1–H3K9me1 peptide binding; activity, negative = inhibition: at 57.1 µM (top of the series); further: nearly all actives have a fitted effect of over 60% in size
UniProt Q9Y468, sequence (Q9Y468 whole entry, looked up): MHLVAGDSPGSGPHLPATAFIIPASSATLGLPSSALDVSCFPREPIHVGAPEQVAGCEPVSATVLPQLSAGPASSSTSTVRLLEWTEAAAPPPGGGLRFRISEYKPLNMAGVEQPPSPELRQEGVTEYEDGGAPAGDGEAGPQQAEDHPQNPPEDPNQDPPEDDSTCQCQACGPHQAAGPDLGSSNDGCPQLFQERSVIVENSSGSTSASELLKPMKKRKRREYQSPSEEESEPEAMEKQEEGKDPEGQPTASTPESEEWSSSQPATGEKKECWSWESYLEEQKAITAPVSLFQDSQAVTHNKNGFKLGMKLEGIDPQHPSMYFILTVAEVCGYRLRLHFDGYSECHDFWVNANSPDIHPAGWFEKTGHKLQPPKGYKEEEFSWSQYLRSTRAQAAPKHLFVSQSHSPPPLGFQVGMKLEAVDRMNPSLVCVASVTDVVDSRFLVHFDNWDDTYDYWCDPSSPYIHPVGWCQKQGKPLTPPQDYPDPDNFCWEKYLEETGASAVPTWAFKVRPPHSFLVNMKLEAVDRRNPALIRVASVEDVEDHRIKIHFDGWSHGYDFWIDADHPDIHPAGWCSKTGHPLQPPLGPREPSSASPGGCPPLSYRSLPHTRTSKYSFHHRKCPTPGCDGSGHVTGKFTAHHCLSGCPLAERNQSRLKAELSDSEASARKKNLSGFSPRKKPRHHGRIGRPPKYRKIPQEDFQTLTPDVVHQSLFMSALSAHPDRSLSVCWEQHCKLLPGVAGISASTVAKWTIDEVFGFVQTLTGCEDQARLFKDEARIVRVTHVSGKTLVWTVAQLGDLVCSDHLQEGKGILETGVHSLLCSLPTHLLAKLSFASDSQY
Procedure, shortened: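 L3MBTL1 50 nM + b-AHA-H3(1-15)K9me1 75 nM, 30 min RT; compound added, 30 min RT; streptavidin donor/Ni-chelate acceptor beads 10 ug/mL each final, 30 min RT dark; AlphaScreen read.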
On the % scale 0 is the no-effect control and ±100 the full control effect; potency means the concentration at half of the fitted maximal effect; tags describe the fitted curve by direction and shape.

SMILES	Potency	activity, negative = inhibition
CCN1/C(=C\c2ccc3cc(C)ccc3[n+]2CC)Sc2cc(C)c(C)cc21	inconclusive: 12.6 µM [inhibitor, partial curve]	
CC1(c2cccc3ccccc23)NC(=O)N(CC(=O)NC2CCS(=O)(=O)C2)C1=O (stereo unspecified)	inconclusive: 0.708 µM [inhibitor, single point]	
N#Cc1nc(-c2ccccc2)oc1NCc1ccco1	inconclusive: 31.6 µM [inhibitor, partial curve]	
CCCc1cc(NC(=O)COC(=O)c2ccc(O)cc2O)n(-c2ccccc2)n1	inconclusive: 1.26 µM [inhibitor, single point]	
O=C(CN1CCOCC1)Nc1cc(C(F)(F)F)ccc1Cl	inconclusive: 1 µM [inhibitor, full curve, poor fit]	
Fc1ccccc1CSc1nnc(-c2cnccn2)n1Cc1ccco1	inconclusive: 5.01 µM [inhibitor, single point]	
CCc1ccc(NC(=O)CCc2nc3sc4c(c3c(=O)[nH]2)CCCC4)cc1	inconclusive: 28.2 µM [inhibitor, single point]	
O=C1CCC(C(=O)Nc2nnc(C3CC3)s2)=NN1	inconclusive: 0.355 µM [inhibitor, full curve, poor fit]	
O=c1c2c([nH]c3ccccc13)C(=C1CCCC1)CC2	inconclusive: 28.2 µM [inhibitor, single point]	
O=C(/C=C/c1ccco1)Nc1ccccc1C(=O)Nc1cccc(C(=O)O)c1	inconclusive: 31.6 µM [inhibitor, single point]	
O=C(Nc1ncc(Cc2cccc(C(F)(F)F)c2)s1)c1ccc(-c2cccc([N+](=O)[O-])c2)o1	inconclusive: 0.708 µM [inhibitor, single point]	
Cc1cc(S(N)(=O)=O)c(N)c(S(N)(=O)=O)c1	inactive	
Cc1nc(NC(=O)CN2CCCCC2)sc1C(=O)N(C)C	inactive	
CCN1C(=O)/C(=C\N(C)C)NC1=S	inactive	
CCN(CC)C(=O)c1cc(Cl)ccn1	inconclusive: 25.1 µM [inhibitor, partial curve, poor fit]	
COc1ccc(CC(=O)OCC(=O)Nc2ccc3c(c2)OCO3)cc1OC	inconclusive: 28.2 µM [inhibitor, single point]	
O=C1CSC(=S)N1/N=C/c1ccc(Cl)c([N+](=O)[O-])c1	inconclusive: 14.1 µM [inhibitor, single point]	
CCOC(=O)CNC(=O)c1sc(NC(=O)c2ccccc2)nc1C	inactive	
Cc1cc(C(=O)Nc2nc3ccc(S(C)(=O)=O)cc3s2)c(C)o1	inconclusive: 1.26 µM [inhibitor, single point]	
COc1ccccc1OCCCN1C(=O)C(=O)c2cccc(C)c21	inconclusive: 39.8 µM [inhibitor, single point]	
O=C(O)Cn1cnc2scc(-c3cccs3)c2c1=O	inconclusive: 31.6 µM [inhibitor, single point]	
CCOC(=O)C1(Cc2ccc(OC)cc2)CCN(C(=O)c2ccoc2C)CC1	inconclusive: 0.355 µM [inhibitor, full curve]	
CC(=O)/C(=N\Nc1ccc(Cl)cc1Cl)Sc1cccc2cccnc12	inconclusive: 25.1 µM [inhibitor, single point]	
CN=C1SC(CC(=O)Nc2ccccc2F)C(=O)N1/N=C/c1ccc(O)c(OC)c1 (stereo unspecified)	inconclusive: 0.891 µM [inhibitor, single point]	

SMILES	Potency	activity, negative = inhibition
COc1ccc(Cc2nnc(N/N=C/c3ccc(O)cc3O)[nH]c2=O)cc1OC	active: 3.55 µM	
Cc1ccccc1-c1nnn(CC(=O)N(C)CC(=O)Nc2ccccc2C(F)(F)F)n1	inactive	
Cc1cc2[nH]ncc2cc1NC(N)=S	inconclusive: 2.51 µM [inhibitor, partial curve, poor fit]	
O=C(O)c1cccc([N+](=O)[O-])c1C(=O)Nc1nc2ccccc2s1	inactive	
O=C(N/N=C/c1ccc[nH]1)c1ccccc1OCc1ccccc1Cl	inconclusive: 15.8 µM [inhibitor, single point]	
O=C(c1ccco1)N1CCN(C(=O)c2sccc2-c2ccccc2)CC1	inconclusive: 5.62 µM [inhibitor, single point]	
COC(=O)c1cc(OC)c(OC)cc1NCC(=O)Nc1ccc(C)cc1	inconclusive: 0.794 µM [inhibitor, single point]	
Cc1ccn2c(=O)nc(SCC(=O)N3CCC(Cc4ccccc4)CC3)nc2c1	inactive	
CCC(C)(C)NC(=O)C(c1ccc(C)cc1)N(Cc1ccco1)C(=O)Cn1nnc2ccccc21 (stereo unspecified)	inconclusive: 7.08 µM [inhibitor, single point]	
O=C(O)c1ccc(OCC(F)(F)F)nc1	inconclusive: 10 µM [inhibitor, partial curve]	
C[C@H]([C@@H](N)C(=O)N[C@@H](C(=O)O)[C@@H]1O[C@H](n2ccc(=O)[nH]c2=O)[C@@H](O)[C@H]1O)[C@@H](O)c1ccc(O)cn1	inactive	
CC(C)(C)c1nnc(NC(=O)c2cc(-c3ccccc3)nc3ccccc23)s1	inactive	
O=C(O)CCc1ccc(-c2cccs2)n1NC(=O)c1ccc(O)cc1	inconclusive: 35.5 µM [inhibitor, partial curve, poor fit]	
Cn1nnnc1N=N/C(=N/Nc1ccccc1)c1ccccc1	active: 2.82 µM	
CC1C(=O)NN=C1C(=O)N/N=C\c1ccc(O)cc1O (stereo unspecified)	active: 28.2 µM	
C#CCOCCOCCOCCNc1nc(N2CCN(C(=O)[C@H]([C@@H](C)CC)n3cc([C@@H](N)Cc4ccc(O)cc4)nn3)CC2)nc(N2CCN(C(=O)[C@H](Cc3cc4ccccc4[nH]3)n3cc([C@@H](N)C(C)CC)nn3)CC2)n1 (stereo partly specified)	inconclusive: 1.12 µM [inhibitor, full curve, poor fit]	
CCOc1cc(-c2nc(C)c(C(C)=O)n2O)ccc1OCC(=O)Nc1ccc(F)cc1	inactive	
CCc1sc(C(=O)Nc2ccc3c(c2)OCO3)cc1C	inconclusive: 35.5 µM [inhibitor, single point]	
CCN1CCN(c2nc3c(C)cccn3c(=O)c2/C=C(\C#N)S(=O)(=O)c2ccc(Cl)cc2)CC1	inactive	
COc1ccc(CC(=O)O)cc1O	inactive	
Cc1cc(NCc2ccco2)n2ncnc2n1	inconclusive: 39.8 µM [inhibitor, single point]	
COc1cccc(NC(=O)CCC(=O)N2CC(C)Oc3ccc(C)cc32)c1 (stereo unspecified)	inconclusive: 39.8 µM [inhibitor, single point]	
O=C(COC(=O)c1ccccn1)Nc1ncc(C(F)(F)F)cc1Cl	inconclusive: 28.2 µM [inhibitor, single point]	
Cc1cc(/C=C\c2ccc3cc(N(C)C)ccc3[n+]2C)c(C)n1-c1ccccc1	active: 31.6 µM	

SMILES	Potency	activity, negative = inhibition
COc1cc(/C=N/NC(=O)c2ccccc2O)ccc1OCC(=O)Nc1ccccc1	inactive	
O=C(CCn1nnc2ccccc2c1=O)NCC1CCC(C(=O)O)CC1 (stereo unspecified)	inactive	
Cc1nc(SCC(=O)Nc2c(C)n(C)n(-c3ccccc3)c2=O)c(C#N)c(C)c1C	inactive	
Cn1c(N/N=C/c2c[nH]c3ccccc23)nc2ccccc21	inconclusive: 31.6 µM [inhibitor, single point]	
Oc1cccc(C2c3[nH]c4ccccc4c3CCN2Cc2ccc3c(c2)CCO3)c1 (stereo unspecified)	inconclusive: 25.1 µM [inhibitor, single point]	
CCOC(=O)c1cnn2c(N)c(C#N)cnc12	inactive	
CC1=C(C(=O)OCC2CCCO2)C(c2ccncc2)C2=C(CC(C)(C)CC2=O)N1 (stereo unspecified)		inactive: -12.5% [at 11.4 µM]
N#C/C(=C\c1ccc(O)c(O)c1)C(=O)NCCCc1ccccc1		inconclusive: -31.4% [inhibitor]
Cc1ccc(NC(=O)C2CCCN2C(=O)Oc2ccccc2)c(C)c1 (stereo unspecified)	inactive	
O=C(COC(=O)CSc1ccc([N+](=O)[O-])cc1)NCCC1=CCCCC1	inactive	
COc1ccccc1/C=C/C(=O)OC(C)CN1CCOCC1 (stereo unspecified)	inconclusive: 39.8 µM [inhibitor, single point]	
O=C(CSc1nncn1-c1ccccc1)Nc1ccc(N2CCOCC2)cc1	inconclusive: 5.01 µM [inhibitor, single point]	
CCS(=O)(=O)c1ccc2oc(SCC(=O)c3c(N)n(C4CC4)c(=O)[nH]c3=O)nc2c1	inactive	
CCOC(=O)Cc1nn[nH]n1	inactive	
O=C(O)C1CC=CCC1C(=O)Nc1ccc2c(c1)OCCO2 (stereo unspecified)	inconclusive: 31.6 µM [inhibitor, partial curve]	
COc1cc(OC)cc(C(=O)NC(C(=O)Nc2ccc(N3CCOCC3)cc2)C(C)C)c1 (stereo unspecified)	inactive	
COc1ccc(S(=O)(=O)c2c(N)n(Cc3ccco3)c3nc4ccccc4nc23)cc1	active: 28.2 µM	
CN(C)S(=O)(=O)c1ccc2c(c1)nc(CCC(=O)Nc1ccc(N3CCOCC3)cc1)n2C	inconclusive: 15.8 µM [inhibitor, partial curve, poor fit]	
CN(C)c1ccc(C2SCCN2C(=O)c2ccc([N+](=O)[O-])cc2)cc1 (stereo unspecified)	inactive	
COc1cc(/C=N/N(c2ccccc2)c2ccccc2)ccc1O	inactive	
COc1cc(C#Cc2c(-c3cncn3C)n(C)c3ccc(-c4ccc(OC)c(OC)c4)cc23)cc(OC)c1	inconclusive: 0.891 µM [inhibitor, full curve]	
C=CCn1c(NC(=O)c2ccco2)c(S(=O)(=O)c2ccccc2)c2nc3ccccc3nc21	inactive	
C#CCN1C(=O)S/C(=C\c2ccc(-c3ccc(Cl)c(C(=O)O)c3)o2)C1=O	inconclusive: 35.5 µM [inhibitor, single point]	
